#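 Tested at 5 concentrations; 48 h exposure; 96-well plates; endpoints linearly interpolated, else capped at highest concentration. Abbreviation: GI50, concentration required for 50% inhibition of growth. At the TGI there is no net growth.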 Active and inactive are the calls of the source.
# Key:
# CCRF-CEM leukemia = test: growth of human tumour cells (NCI), 48 h
# SR leukemia = test: growth of human tumour cells (NCI), 48 h
smiles,measurement,setting,value
CCOC(=O)c1ccc(N/N=C/c2cn(-c3ccc(S(N)(=O)=O)cc3)nc2-c2ccccc2)cc1,GI50,CCRF-CEM leukemia,inactive
same,TGI,CCRF-CEM leukemia,9.81 µM
same,GI50,SR leukemia,inactive
same,TGI,SR leukemia,4.84 µM

# — PubChem BioAssay (NCI)
